Data set [1] addresses T1, EphA5 antigen (Homo sapiens, UniProt P54756).
T1 construct: purchased R and D systems 3036-A5
The data set can be described thus: kd (1/s). On the procedure: (§1) Table printed on a drawing sheet, FIG. 19
(§2) Head of the field: kd (1/s)
(§3) The patent's description of the figure: FIG. 19 is a table illustrating the Multi-cycle kinetic parameters of chimeric (VH0/VK0) and humanized variants (tested as purified proteins) binding to EphA5 antigen as determined using the Biacore T200. The relative KD was calculated by dividing the KD of the humanized variant by that of the VH0VK0 (first row) assayed in the same experiment. […]
(§4) Where the first naming reader finds the target: description_of_the_figure: humanized variants (tested as purified proteins) binding to EphA5 antigen as determined using the Biacore T200

Data set [2] relates to 6,000 human membrane protein clones. Kind of data set: Membrane Proteome Array (MPA) specificity screen. To be noted: 20 μg/ml antibody, HEK-293T. The class given is binding. The procedure:
To optimize conditions for test antibody detection, HEK-293T cells and QT6 cells were transfected with plasmids encoding known test antibody targets, Protein A (binds antibody Fc; positive control), or vector alone (pUC; negative control) in 384-well cell-culture plates. After incubation, four four-fold dilutions starting at 20 μg/ml of each test antibody were added in quadruplicate to transfected cells and detected using a single dilution of secondary antibody in a high-throughput immunofluorescence flow cytometry assay. Data from assay setup experiments were used to determine the optimal screening conditions for high-throughput immunodetection (Table E4). Optimal screening concentrations were determined by the background signal (mean fluorescence intensity (MFI)), and false positive rate in the vector control.
Membrane Proteome Array: Membrane Proteome Array (MPA) screening was conducted at Integral Molecular. The MPA is a protein library composed of 6,000 human membrane protein clones, each overexpressed in live cells from expression plasmids. […] Before screening on the MPA, the test antibody concentration for screening was determined on cells expressing positive (membrane-tethered Protein A) and negative (mock-transfected) binding controls, followed by detection by flow cytometry using a fluorescently-labeled secondary antibody. […]

The test system of data set [3] is H460, A549 and H1299 human lung carcinoma cells. Kind of data set: Incucyte Human Fabfluor-pH Red antibody internalization. The class given is cell-based. To be noted: naked mAb, real-time live cell imaging. The procedure:
In vitro studies were conducted in which three different Eph5A-expressing target cell lines were incubated with various concentrations of VH5Vk3 or VH4Vk3 antibodies after which internalization of bound antibody was calculated. Antibody internalization was performed with the Incucyte® Human Fabfluor-pH Red Antibody Labeling Dye and the naked VH4Vk3 (FIG. 66) and VH5Vk3 (FIG. 67) human monoclonal antibodies in the following cell lines: H460 human lung carcinoma, A549 human lung carcinoma and H1299 human lung carcinoma. These cell lines express variable levels of EphA5 on the cell surface: H460 (+++)>A549 (++)=H1299 (++). Internalization was visualized and quantified using real-time live cell imaging analysis. The Fabfluor-pH Red Antibody Labeling Dye is sensitive to pH and only emits fluorescence once inside lysosomes in low pH conditions.

The target of data set [4] is T2, rhEphA5 antigen (Homo sapiens, UniProt P54756).
T2 construct: purchased R and D systems 3036-A5
T2 sequence (P54756 25-1037 limits assumed): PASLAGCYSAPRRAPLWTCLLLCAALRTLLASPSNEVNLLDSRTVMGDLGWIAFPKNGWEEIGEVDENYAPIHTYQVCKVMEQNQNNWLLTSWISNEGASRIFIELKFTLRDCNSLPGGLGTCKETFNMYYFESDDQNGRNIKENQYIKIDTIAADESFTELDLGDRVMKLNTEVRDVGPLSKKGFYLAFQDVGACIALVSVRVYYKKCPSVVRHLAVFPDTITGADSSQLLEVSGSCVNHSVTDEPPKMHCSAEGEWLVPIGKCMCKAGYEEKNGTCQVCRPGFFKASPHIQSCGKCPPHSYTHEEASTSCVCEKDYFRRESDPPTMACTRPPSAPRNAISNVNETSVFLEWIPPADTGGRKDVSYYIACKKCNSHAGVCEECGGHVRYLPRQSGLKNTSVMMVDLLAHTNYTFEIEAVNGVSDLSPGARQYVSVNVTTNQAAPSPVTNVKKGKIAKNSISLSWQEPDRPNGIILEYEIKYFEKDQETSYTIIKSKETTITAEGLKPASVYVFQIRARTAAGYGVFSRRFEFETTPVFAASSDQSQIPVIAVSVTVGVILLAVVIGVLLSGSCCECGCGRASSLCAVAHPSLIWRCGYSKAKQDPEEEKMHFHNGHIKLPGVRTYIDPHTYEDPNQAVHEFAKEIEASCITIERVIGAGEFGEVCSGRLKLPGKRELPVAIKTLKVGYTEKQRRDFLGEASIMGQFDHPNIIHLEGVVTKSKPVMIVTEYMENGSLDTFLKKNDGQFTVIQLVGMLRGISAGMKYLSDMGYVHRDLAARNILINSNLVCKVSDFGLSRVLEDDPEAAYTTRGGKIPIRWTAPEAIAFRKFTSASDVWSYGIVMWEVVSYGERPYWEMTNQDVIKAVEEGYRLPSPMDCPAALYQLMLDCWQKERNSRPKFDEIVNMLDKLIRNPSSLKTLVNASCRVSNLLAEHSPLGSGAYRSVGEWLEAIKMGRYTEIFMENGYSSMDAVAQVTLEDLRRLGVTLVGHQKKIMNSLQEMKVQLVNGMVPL
Kind of data set: kd (1/s). On the procedure: (§5) Table printed on a drawing sheet, FIG. 13
as §2
(§6) The patent's description of the figure: FIG. 13 is a table illustrating the single cycle kinetic parameters of chimeric (VH0/VK0) and humanized 11C12 variants (tested as cell culture supernatants) binding to rhEphA5 antigen as determined using the Biacore T200. The relative KD was calculated by dividing the KD of the humanized variant by that of the VH0/VK0 (top row) assayed in the same experiment. The variants marked with ‘*’ have KD values that are within two-fold of, or are better than, the chimeric antibody. The chimeric and selected variants marked in ‘#’ were identified as the main leads for purification. […]
(§7) Where the first naming reader finds the target: description_of_the_figure: humanized 11C12 variants (tested as cell culture supernatants) binding to rhEphA5 antigen as determined using the Biacore T200

The target of data set [5] is T1, EphA5 antigen. The data set can be described thus: ka (1/Ms). The procedure:
as §1
(§8) Head of the field: ka (1/Ms)
as §3, §4

In data set [6] the target is T2, rhEphA5 antigen. The data set can be described thus: ka (1/Ms). The procedure:
as §5, §8, §6, §7

A short description of data set [7]: Thermal ramp stability (UNcle biostability platform, Sypro Orange and SLS). The class given is physicochemical. The source says: Thermal ramp stability experiments (Tm and Tagg) are well established methods for ranking proteins and formulations for stability. A protein's denaturation profile provides information about its thermal stability and represents a structural ‘fingerprint’ for assessing structural and formulation buffer modifications. A widely used measure of the thermal structural stability of a protein is the temperature at which it unfolds from the native state to a denatured state. For many proteins, this unfolding process occurs over a narrow temperature range and the mid-point of this transition is termed ‘melting temperature’ or ‘Tm’. To determine the melting temperature of a protein, UNcle measures the fluorescence of Sypro Orange (which binds to exposed hydrophobic regions of proteins) as the protein undergoes conformational changes.
Samples for each variant were formulated in PBS and Sypro Orange at a final concentration of 1 mg/mL. […] Samples were subjected to a thermal ramp from 25-95° C., with a ramp rate of 0.3° C./minute and excitation at 473 nm. Full emission spectra were collected from 250-720 nm, and the area under the curve between 510-680 nm was used to calculate the inflection points of the transition curves (Tonset and Tm). Monitoring of static light scattering (SLS) at 473 nm allowed the detection of protein aggregation, and Tagg (onset of aggregation) was calculated from the resulting SLS profiles. Thermal stability values determined lie in a broad range from 57.9 to 69.6° C. (Tm1), 55.1 to 65.2° C. (Tonset) and 65.6 to 70.2° C. (Tagg) with the humanized leads generally showing improved profiles when compared to the chimeric antibody. […] All humanized antibodies appear to have a higher Tm1, Tonset and Tagg compared to the chimeric antibody.

T1 sequence (P54756 25-1037 limits assumed): as above

B1: VH4/VK3: humanized anti-EphA5 IgG1/kappa antibody, heavy chain SEQ ID NO:38, light chain SEQ ID NO:40 (antibody)
heavy: EVQLVESGGGLVQPGGSLKLSCAASGFTFSTFGIHWVRQAPGKGLEWVAYISGASTTIYYADTVKGRFTISRDNSKNTLYLQMNSLRAEDTAVYYCARYGTSFPYGLDYWGQGTLVTVSSASTKGPSVFPLAPSSKSTSGGTAALGCLVKDYFPEPVTVSWNSGALTSGVHTFPAVLQSSGLYSLSSVVTVPSSSLGTQTYICNVNHKPSNTKVDKRV[letters of human IgG1 Fc left out]
light: DIVMTQSPDSLAVSLGERATINCKASQSVDYDGDSYMNWYQQKPGKAPKLLIYGASNLESGIPDRFSGSGSGTDFTLTISRLEPEDAAVYYCQQSNEDPFTFGQGTKLEIKRTVAAPSVFIFPPSDEQLKSGTASVVCLLNNFYPREAKVQWKVDNALQSGNSQESVTEQDSKDSTYSLSSTLTLSKADYEKHKVYACEVTHQGLSSPVTKSFNRGEC
As to B1, the entries for the “kd” value in data set [1] and in data set [4] were 0.00139 s⁻¹ and 0.00137 s⁻¹, respectively. Besides, in data set [2], the “Identified membrane protein targets, Target gene (HGNC)” value is “EPHA5”. For the same molecule, in data set [3], the “internalization and lysosomal trafficking” value is “confirmed receptor-mediated internalization and trafficking of both human monoclonal antibodies through the lysosomal compartment”. Besides, the “ka” value was determined as 1.49e-06 M⁻¹ s⁻¹ in data set [5] and 1.31e-06 M⁻¹ s⁻¹ in data set [6]. Besides, in data set [7], the “Tagg ranking among the leads (SLS profiles)” value is on record as “highest Tagg values”.

(Values after patent US12662541B2, “Antibody-drug conjugates against the receptor tyrosine kinase EphA5” (Rutgers, The State University of New Jersey, priority 2021, dated 2026).)
